We go through 1 molecule from publication PMC6760808.

Results are given in words; binding and its absence hold for the method and conditions named. Some entries that bind do so weakly or less than the wild type. Where a sequence is shown, tags or fusion partners need not be part of it.

For assay [1], the target named is T1, NPHP2-mCh-mito (UniProt Q9Y283).
T1 sequence: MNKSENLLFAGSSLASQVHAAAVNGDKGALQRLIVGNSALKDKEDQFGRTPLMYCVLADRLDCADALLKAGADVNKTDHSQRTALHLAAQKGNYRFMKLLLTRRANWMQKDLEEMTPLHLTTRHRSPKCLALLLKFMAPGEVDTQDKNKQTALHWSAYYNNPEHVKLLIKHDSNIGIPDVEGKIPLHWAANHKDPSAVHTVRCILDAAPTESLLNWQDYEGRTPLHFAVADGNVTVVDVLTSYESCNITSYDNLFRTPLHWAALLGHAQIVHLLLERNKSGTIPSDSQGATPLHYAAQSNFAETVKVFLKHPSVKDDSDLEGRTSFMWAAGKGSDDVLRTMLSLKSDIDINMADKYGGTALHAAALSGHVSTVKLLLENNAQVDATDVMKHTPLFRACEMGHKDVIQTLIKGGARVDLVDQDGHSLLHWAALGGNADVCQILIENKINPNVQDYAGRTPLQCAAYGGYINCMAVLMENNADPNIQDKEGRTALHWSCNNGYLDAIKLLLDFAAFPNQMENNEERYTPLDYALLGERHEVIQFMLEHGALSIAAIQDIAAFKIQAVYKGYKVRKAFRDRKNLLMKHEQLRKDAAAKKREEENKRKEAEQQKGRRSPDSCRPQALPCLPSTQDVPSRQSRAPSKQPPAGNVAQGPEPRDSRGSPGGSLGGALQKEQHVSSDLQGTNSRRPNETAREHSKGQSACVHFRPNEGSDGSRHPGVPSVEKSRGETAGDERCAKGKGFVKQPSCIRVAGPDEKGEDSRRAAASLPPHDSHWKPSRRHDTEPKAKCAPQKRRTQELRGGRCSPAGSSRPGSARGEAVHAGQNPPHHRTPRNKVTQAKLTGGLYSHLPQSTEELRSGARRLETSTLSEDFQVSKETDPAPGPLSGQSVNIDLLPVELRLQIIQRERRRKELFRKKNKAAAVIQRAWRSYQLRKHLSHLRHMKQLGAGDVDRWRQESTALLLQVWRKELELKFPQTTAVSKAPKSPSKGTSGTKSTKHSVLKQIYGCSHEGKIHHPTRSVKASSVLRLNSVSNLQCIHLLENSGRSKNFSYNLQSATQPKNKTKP
The experiment in a line: knocksideways (recruitment to the mitochondrial surface, fluorescence microscopy); NPHP-mCh-mito bait on the mitochondrial surface co-expressed with EGFP-tagged nucleoporin in COS-7 cells; fixed 24 hours post-transfection.

Assay [2] concerns the target T2, NPHP4-mCh-mito (UniProt O75161).
T2 sequence: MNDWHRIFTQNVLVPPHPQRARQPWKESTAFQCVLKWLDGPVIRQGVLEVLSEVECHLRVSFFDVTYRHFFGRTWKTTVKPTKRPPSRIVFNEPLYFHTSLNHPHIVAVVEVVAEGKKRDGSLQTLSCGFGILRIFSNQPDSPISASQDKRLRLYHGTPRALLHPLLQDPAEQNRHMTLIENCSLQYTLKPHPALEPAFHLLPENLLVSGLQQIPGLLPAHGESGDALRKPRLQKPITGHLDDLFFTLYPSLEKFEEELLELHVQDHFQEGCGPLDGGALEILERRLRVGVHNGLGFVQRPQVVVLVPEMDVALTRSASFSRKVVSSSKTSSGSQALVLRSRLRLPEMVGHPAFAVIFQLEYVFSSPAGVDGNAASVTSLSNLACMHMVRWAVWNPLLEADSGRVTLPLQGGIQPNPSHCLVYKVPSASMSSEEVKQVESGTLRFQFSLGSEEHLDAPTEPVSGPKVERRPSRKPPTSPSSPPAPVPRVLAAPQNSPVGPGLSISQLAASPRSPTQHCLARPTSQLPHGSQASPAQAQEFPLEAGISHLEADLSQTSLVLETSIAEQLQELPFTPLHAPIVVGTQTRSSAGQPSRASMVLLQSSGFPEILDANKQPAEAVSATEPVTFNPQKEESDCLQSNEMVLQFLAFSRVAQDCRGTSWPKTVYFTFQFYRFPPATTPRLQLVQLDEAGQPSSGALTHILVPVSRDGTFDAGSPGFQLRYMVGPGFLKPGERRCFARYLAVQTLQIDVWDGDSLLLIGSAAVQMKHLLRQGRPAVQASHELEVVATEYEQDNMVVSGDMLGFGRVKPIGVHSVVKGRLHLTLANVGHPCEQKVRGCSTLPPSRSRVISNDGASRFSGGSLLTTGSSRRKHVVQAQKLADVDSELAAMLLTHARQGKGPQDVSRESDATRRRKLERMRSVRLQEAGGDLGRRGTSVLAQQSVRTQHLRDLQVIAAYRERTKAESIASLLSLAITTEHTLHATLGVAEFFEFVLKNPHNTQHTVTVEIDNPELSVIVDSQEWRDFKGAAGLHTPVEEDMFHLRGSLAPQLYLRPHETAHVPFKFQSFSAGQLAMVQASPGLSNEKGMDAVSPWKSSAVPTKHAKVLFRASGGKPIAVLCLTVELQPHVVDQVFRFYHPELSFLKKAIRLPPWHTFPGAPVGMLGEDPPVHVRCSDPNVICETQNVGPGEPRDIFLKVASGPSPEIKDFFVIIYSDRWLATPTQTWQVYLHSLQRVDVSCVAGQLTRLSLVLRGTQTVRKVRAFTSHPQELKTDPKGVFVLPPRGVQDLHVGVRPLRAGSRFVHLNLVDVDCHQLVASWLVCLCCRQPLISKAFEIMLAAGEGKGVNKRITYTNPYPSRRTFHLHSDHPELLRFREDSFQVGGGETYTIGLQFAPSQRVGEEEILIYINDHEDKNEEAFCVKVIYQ
The description is as above.

B1: Nup155-EGFP3 (protein, UniProt O75694 1-1391)
chain: MPSSLLGAAMPASTSAAALQEALENAGRLIDRQLQEDRMYPDLSELLMVSAPNNPTVSGMSDMDYPLQGPGLLSVPNLPEISSIRRVPLPPELVEQFGHMQCNCMMGVFPPISRAWLTIDSDIFMWNYEDGGDLAYFDGLSETILAVGLVKPKAGIFQPHVRHLLVLATPVDIVILGLSYANLQTGSGVLNDSLSGGMQLLPDPLYSLPTDNTYLLTITSTDNGRIFLAGKDGCLYEVAYQAEAGWFSQRCRKINHSKSSLSFLVPSLLQFTFSEDDPILQIAIDNSRNILYTRSEKGVIQVYDLGQDGQGMSRVASVSQNAIVSAAGNIARTIDRSVFKPIVQIAVIENSESLDCQLLAVTHAGVRLYFSTCPFRQPLARPNTLTLVHVRLPPGFSASSTVEKPSKVHRALYSKGILLMAASENEDNDILWCVNHDTFPFQKPMMETQMTAGVDGHSWALSAIDELKVDKIITPLNKDHIPITDSPVVVQQHMLPPKKFVLLSAQGSLMFHKLRPVDQLRHLLVSNVGGDGEEIERFFKLHQEDQACATCLILACSTAACDREVSAWATRAFFRYGGEAQMRFPTTLPPPSNVGPILGSPVYSSSPVPSGSPYPNPSFLGTPSHGIQPPAMSTPVCALGNPATQATNMSCVTGPEIVYSGKHNGICIYFSRIMGNIWDASLVVERIFKSGNREITAIESSVPCQLLESVLQELKGLQEFLDRNSQFAGGPLGNPNTTAKVQQRLIGFMRPENGNPQQMQQELQRKFHEAQLSEKISLQAIQQLVRKSYQALALWKLLCEHQFTIIVAELQKELQEQLKITTFKDLVIRDKELTGALIASLINCYIRDNAAVDGISLHLQDICPLLYSTDDAICSKANELLQRSRQVQNKTEKERMLRESLKEYQKISNQVDLSNVCAQYRQVRFYEGVVELSLTAAEKKDPQGLGLHFYKHGEPEEDIVGLQAFQERLNSYKCITDTLQELVNQSKAAPQSPSVPKKPGPPVLSSDPNMLSNEEAGHHFEQMLKLSQRSKDELFSIALYNWLIQVDLADKLLQVASPFLEPHLVRMAKVDQNRVRYMDLLWRYYEKNRSFSNAARVLSRLADMHSTEISLQQRLEYIARAILSAKSSTAISSIAADGEFLHELEEKMEVARIQLQIQETLQRQYSHHSSVQDAVSQLDSELMDITKLYGEFADPFKLAECKLAIIHCAGYSDPILVQTLWQDIIEKELSDSVTLSSSDRMHALSLKIVLLGKIYAGTPRFFPLDFIVQFLEQQVCTLNWDVGFVIQTMNEIGVPLPRLLEVYDQLFKSRDPFWNRMKKPLHLLDCIHVLLIRYVENPSQVLNCERRRFTNLCLDAVCGYLVELQSMSSSVAVQAITGNFKSLQAKLERLH
With B1, the binding entry in assay [1] and in assay [2] was “binds” each time.
